# Results: PubChem BioAssay AID504832 (National Center for Advancing Translational Sciences (NCATS), 2011)
# The whole screen tested about 310,000 compounds, of which about 18,000 (5.8%) were called active. The inconclusive results got no clear call from the source; some entries with a clear call stand among them for comparison. Calls come from the whole dose curve; as a rule, active = well fitted inhibition curve with a large enough effect; inconclusive = small, poorly fitted or top-dose-only effect, or another doubt; inactive = no such curve, though single readings can be large or run the other way. Potencies of inconclusive entries are left out as doubtful fits.
# Test: Primary qHTS for delayed death inhibitors of the malarial parasite plastid, 48 hour incubation
# Conditions: P. falciparum luciferase growth in erythrocytes; series mostly up to 28.7 µM; activity change, negative = inhibition: at the top concentration
# Summary of the method: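 Compounds are pin-transferred into medium, infected erythrocytes (2% hematocrit, 0.1% parasitemia final) are added, and plates sit one parasite generation at 37 C in 5% CO2. Detection reagent is then added and luminescence measured.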
# % is set by controls: 0 for no effect and ±100 for the full control effect; potency is the fitted concentration of half-maximal effect; tags give direction and shape of the fitted curve.
SMILES,Potency,"activity change, negative = inhibition"
CC(=O)c1ccc(S(=O)(=O)NC2CC2)cc1,"inconclusive [inhibitor, partial curve, poor fit]",–
COc1ccc(-n2cc(-c3ccccc3)c3c(N4CCN(CCO)CC4)ncnc32)cc1,"inconclusive [inhibitor, single point]",–
CCc1ccc(C2(O)CC(C(F)(F)F)=NN2C(=O)Cc2ccc([N+](=O)[O-])cc2)cc1 (configuration not stated),"inconclusive [inhibitor, single point]",–
CCN(CC)c1ccc(C2C3CCCCC3(O)CCN2CC(=O)N2CCCCC2)cc1 (configuration not stated),"inconclusive [inhibitor, single point]",–
COC(=O)c1ccsc1NC(=O)CCS(=O)(=O)c1ccc(Cl)cc1,–,inactive: -16.7%
CO/N=C/CC(=O)c1ccc([N+](=O)[O-])c(CS(=O)(=O)c2ccc(Cl)cc2)c1,active: 14.7 µM,–
CCCCCN(C(=O)CCC(=O)OCc1cccc(Cl)c1)c1c(N)n(CCCC)c(=O)[nH]c1=O,"inconclusive [inhibitor, single point]",–
Cc1ccc(OCc2nc(-c3ccc(Cl)cc3)n[nH]2)cc1,–,inactive: 26.6%
COc1ccccc1NC(=O)N1CCCC1C(=O)NCc1ccccc1Cl (configuration not stated),–,inactive: 13.6%
Cc1ccc(NC(=O)COC(=O)c2ccccc2F)cc1S(=O)(=O)N1CCCCC1,–,inactive: -0.747%
CC(C)c1ccc(C(=O)NNC(=O)c2ccncc2)cc1,–,inactive: 12.3%
CCc1ccc(NC(=S)NCc2ccccc2)cc1,–,inactive: 10.2%
COC(=O)Cc1ccc(NC(=S)N2CCN(c3cccc(O)c3)CC2)cc1,"inconclusive [inhibitor, single point]",–
Cc1[nH]nc(S(=O)CC(=O)O)c1[N+](=O)[O-] (configuration not stated),"inconclusive [inhibitor, partial curve, poor fit]",–
OCCCN1CCN(CCOc2ccccc2-c2ccccc2)CC1,"inconclusive [inhibitor, single point]",–
O=C(NN1C(=O)C2C3C=CC(C4CC34)C2C1=O)c1cccc(Cl)c1 (configuration not stated),–,inactive: -4.16%
Cn1c(=O)n(C)c2cc(S(=O)(=O)Nc3cc(Cl)ccc3O)ccc21,"inconclusive [inhibitor, single point]",–
O=C(Nc1nccs1)c1ccc(-c2ccc(Cl)cc2)o1,"inconclusive [inhibitor, single point]",–
CCOC(=O)c1ccc(NC(=O)Cn2c(=O)oc3ccccc32)cc1,"inconclusive [inhibitor, full curve, poor fit]",–
COc1nc(NCc2ccco2)nc(N2CCC(C)CC2)n1,"inconclusive [inhibitor, full curve, poor fit]",–
CN(C)CCSc1nc(N)c2c3c(sc2n1)CN(C)CC3,active: 4.15 µM,–
NNC(=O)CNC(c1ccccc1)c1cc(Cl)ccc1NC(=O)c1ccccc1 (configuration not stated),"inconclusive [inhibitor, single point]",–
O=C(NCCc1ccccc1)c1cnc2ccccc2n1,–,inactive: 146%
O=C(Nc1ccc(Nc2ccccc2)cc1)c1cc([N+](=O)[O-])ccc1Cl,"inconclusive [inhibitor, single point]",–

SMILES,Potency,"activity change, negative = inhibition"
O=C(O)/C=C\C(=O)Nc1ccccc1C#Cc1ccc(Br)cc1,–,inactive: 23.5%
CCS(=O)(=O)Nc1ccc(C2=NN(C(=O)c3ccco3)C(c3ccco3)C2)cc1 (configuration not stated),"inconclusive [inhibitor, single point]",–
O=C(CSc1nnc(-c2ccncc2)n1CCc1ccccc1)NCc1ccccc1,"inconclusive [inhibitor, single point]",–
CC(CCO)Nc1nc2c(c(=O)n(C)c(=O)n2C)n1Cc1cccc(Br)c1 (configuration not stated),"inconclusive [inhibitor, single point]",–
COc1ccc(NC(=O)c2oc3ccc(S(=O)(=O)N4CCC5(CC4)OCCO5)cc3c2C)cc1,active: 3.7 µM,–
CCOC(=O)C1=C(COC(=O)/C=C/c2ccccc2F)NC(=O)NC1C (configuration not stated),–,inactive: -20.2%
Cc1ccc(Cn2cccc(NC(=O)NCc3ccccc3)c2=O)cc1,–,inactive: 0.0336%
CSC1=C(C#N)C(CC(C)C)C2=C(CCCC2=O)N1 (configuration not stated),"inconclusive [inhibitor, single point]",–
CN(C)/C=N/c1c(C#N)nnn1Cc1ccccc1,"inconclusive [inhibitor, single point]",–
CN(CC(=O)Nc1ccc(S(=O)(=O)N(C)C)cc1)Cc1ccc(C(F)(F)F)cc1,"inconclusive [inhibitor, partial curve, poor fit]",–
CC(CNS(=O)(=O)c1ccccc1)Sc1nncn1C (configuration not stated),"inconclusive [inhibitor, partial curve, poor fit]",–
O=C(Nc1ccc2[nH]ncc2c1)c1ccccc1,–,inactive: 130%
O=C(c1ccc(S(=O)(=O)N2CCCC2)cc1)N(c1ccccc1)C1C=CS(=O)(=O)C1 (configuration not stated),"inconclusive [inhibitor, partial curve, poor fit]",–
O=C(Cc1ccccc1)N1N=C(c2ccncc2)CC1(O)C(F)(F)F (configuration not stated),"inconclusive [inhibitor, partial curve, poor fit]",–
Cc1ccc(-c2noc(=O)n2CC(=O)c2ccc(Cl)cc2)cc1,"inconclusive [inhibitor, partial curve, poor fit]",–
O=C(NNC(=O)c1cc(-c2ccccc2)nc2ccccc12)Nc1cccc(Cl)c1,–,inactive: -21.4%
Cc1ccc2ccc(C(Nc3cccc(C(F)(F)F)c3)c3cccnc3)c(O)c2n1 (configuration not stated),"inconclusive [inhibitor, single point]",–
CC(C)(C)C1CCC(OC(=O)C[N+]2(C)CCCC2)CC1 (configuration not stated),"inconclusive [inhibitor, partial curve, poor fit]",–
COc1cc(-c2nc3ccccn3c2NCc2ccccc2)ccc1SC1CCCCC1,active: 5.22 µM,–
O=C1c2ccccc2NC(c2ccc([N+](=O)[O-])cc2)N1O (configuration not stated),"inconclusive [inhibitor, single point]",–
CCn1c(=O)cc(C(F)(F)F)[nH]c1=S,"inconclusive [inhibitor, single point]",–
CCCCOC(=O)CSc1nnc(-c2ccc(Cl)cc2Cl)o1,–,inactive: 8.9%
O=C(c1ccc(Cl)c(S(=O)(=O)N2CCCCCC2)c1)N1CCN(c2ccc(O)cc2)CC1,active: 13.1 µM,–
CC1CN(C(=O)NCc2ccccc2)c2cc(Cl)ccc2O1 (configuration not stated),–,inactive: -14.8%

SMILES,Potency,"activity change, negative = inhibition"
O=C(c1cc(-c2ccco2)nn1-c1cccc(Cl)c1)N1CCCCC1,"inconclusive [inhibitor, single point]",–
O=C(c1ccc2c(c1)OCCO2)N1CCCCC1,–,inactive: 24.8%
COc1ccc(-c2cc(C(F)(F)F)nc(N3CCOCC3)n2)cc1,"inconclusive [inhibitor, single point]",–
COc1ccc(N2CCN(C(=O)c3cc(=O)c4cc(C)cc(C)c4o3)CC2)cc1,–,inactive: -0.147%
Cc1ccc(S(=O)(=O)Nc2ccc3oc(=O)sc3c2)c(C)c1,"inconclusive [inhibitor, single point]",–
O=C(Nc1cc(Cl)ccc1Oc1ccccc1)C1=COCCO1,"inconclusive [inhibitor, full curve, poor fit]",–
Cc1onc(-c2ccccc2)c1C(=O)N/N=C/c1cccs1,"inconclusive [inhibitor, full curve, poor fit]",–
CCOc1ccc(Nc2oc(-c3ccccc3Cl)nc2C#N)cc1,–,inactive: 10.1%
N#Cc1c(-c2ccc(F)cc2)cc(C2CC2)nc1SCC(=O)c1cccs1,"inconclusive [inhibitor, single point]",–
COC(=O)c1cc(Cl)c(NC(=O)/C=C/c2ccc(OC)cc2)cc1OC,–,inactive: 8.35%
CCCCCCCCC(=O)Nc1cc(C)ccc1OC,active: 10.4 µM,–
COC(=O)CC/C(C)=N\Nc1ccc([N+](=O)[O-])cc1[N+](=O)[O-],–,inactive: 17.1%
COc1cc(C2C3=C(CCCC3=O)Nc3[nH]n(-c4ccccc4)c(=O)c32)ccc1OC(C)=O (configuration not stated),"inconclusive [inhibitor, partial curve]",–
CC(C)C(=O)Nc1cccc(C(=O)Nc2nnc(C(C)(C)C)s2)c1,–,inactive: 41.5%
COc1ccccc1-n1cc(-c2ccccc2)[nH]c1=S,"inconclusive [inhibitor, single point]",–
NCCSC1CC(=O)N(c2ccc(Cl)c(Cl)c2)C1=O (configuration not stated),–,inactive: 45%
COc1cc2cnc(-c3ccccc3)c(-c3cc(OC)c(OC)c(OC)c3)c2cc1OC,active: 10.4 µM,–
CNC(=O)c1ccsc1NC(=O)c1ccc(S(=O)(=O)N2CCCc3ccccc32)cc1,active: 11.7 µM,–
CC(C)c1cc(NCc2ccccn2)n2c(nc3ccccc32)c1C#N,"inconclusive [inhibitor, single point]",–
NC(=O)N/N=C/c1ccc(-c2ccc([N+](=O)[O-])cc2)o1,–,inactive: 53.5%
C#CCOCCOCCOCCNc1nc(N2CCOCC2)nc(N2CCN(C(=O)CCCCCCCCCCNC(=O)[C@H](CO)n3cc(CCCCCN)nn3)CC2)n1,active: 0.329 µM,–
O=C(Nc1ccc(S(=O)(=O)Nc2ncccn2)cc1)c1ccc(N2CCCC2=O)cc1,"inconclusive [inhibitor, partial curve]",–
COc1ccc(/C=N/NC(=O)CNc2ccc(Br)cc2)c(C(=O)O)c1OC,"inconclusive [inhibitor, full curve, poor fit]",–
COc1ccc(NC(=O)C2=CCN(S(=O)(=O)c3ccccc3)CC2)cc1OC,"inconclusive [inhibitor, full curve]",–
